Source: publication PMC11911400, “Mechanism of ASF1 engagement by CDAN1” (Nature Communications, 2025)
Positions count from the first letter of the chain named. No constants are given. Whether binding was seen depends on the method and setting. Binding seen in cells or lysates may run through a third protein. Some binding calls cover weakened binding; strength is not graded here.

What was measured:
[1] = target: T1, HMHA1* BDA1* ST-CDAN1 (human) (UniProt Q8IWY9); assay: pull-down; Strep-Tactin pulldown of transiently transfected ST-CDAN1 variants from Flp-In 293 T-REx lysates; endogenous ASF1A, ASF1B and CDIN1 detected by immunoblotting; IP buffer with 1% Triton X-100, 1 hr at 4 °C
T1 sequence: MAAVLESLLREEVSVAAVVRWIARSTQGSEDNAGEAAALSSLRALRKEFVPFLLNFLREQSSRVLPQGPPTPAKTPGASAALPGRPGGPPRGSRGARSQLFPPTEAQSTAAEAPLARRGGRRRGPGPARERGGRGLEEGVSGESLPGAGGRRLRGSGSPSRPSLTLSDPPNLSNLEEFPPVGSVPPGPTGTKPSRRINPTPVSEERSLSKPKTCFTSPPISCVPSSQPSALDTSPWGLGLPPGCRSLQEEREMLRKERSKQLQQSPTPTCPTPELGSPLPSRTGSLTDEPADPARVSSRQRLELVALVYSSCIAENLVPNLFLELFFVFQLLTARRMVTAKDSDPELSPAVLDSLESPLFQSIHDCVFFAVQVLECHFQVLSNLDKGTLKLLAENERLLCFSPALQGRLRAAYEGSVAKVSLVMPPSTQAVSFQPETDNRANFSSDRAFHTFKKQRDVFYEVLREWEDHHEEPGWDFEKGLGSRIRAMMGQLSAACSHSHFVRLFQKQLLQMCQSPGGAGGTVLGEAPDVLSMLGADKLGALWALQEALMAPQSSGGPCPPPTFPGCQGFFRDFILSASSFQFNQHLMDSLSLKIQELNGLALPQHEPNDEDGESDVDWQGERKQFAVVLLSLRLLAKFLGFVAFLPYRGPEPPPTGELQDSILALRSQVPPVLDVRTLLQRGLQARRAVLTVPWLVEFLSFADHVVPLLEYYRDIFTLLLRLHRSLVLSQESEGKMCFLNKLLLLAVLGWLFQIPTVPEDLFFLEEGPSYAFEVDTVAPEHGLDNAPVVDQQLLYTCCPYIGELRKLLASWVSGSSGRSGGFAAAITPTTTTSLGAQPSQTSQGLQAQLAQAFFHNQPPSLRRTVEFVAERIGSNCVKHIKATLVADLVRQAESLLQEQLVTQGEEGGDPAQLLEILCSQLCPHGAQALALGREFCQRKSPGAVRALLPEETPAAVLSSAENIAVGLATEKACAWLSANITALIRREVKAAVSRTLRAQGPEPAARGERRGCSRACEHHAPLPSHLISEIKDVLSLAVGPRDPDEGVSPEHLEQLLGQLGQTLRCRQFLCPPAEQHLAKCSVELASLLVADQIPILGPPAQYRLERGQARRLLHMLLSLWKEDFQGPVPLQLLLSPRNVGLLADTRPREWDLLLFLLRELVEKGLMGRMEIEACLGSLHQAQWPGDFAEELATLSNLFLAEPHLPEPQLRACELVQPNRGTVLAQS

[2] = target: T2, Strep-CDAN1 HMHA1* (R541A/R544A/R548A) (human) (UniProt Q8IWY9); assay: as above
T2 sequence: T1 sequence with A824M, A825R, A826K

B1: FLAG-tagged CDIN1 (F-CDIN1) (natural protein, UniProt Q9Y2V0 1-281, looked up)
chain: MILTKAQYDEIAQCLVSVPPTRQSLRKLKQRFPSQSQATLLSIFSQEYQKHIKRTHAKHHTSEAIESYYQRYLNGVVKNGAAPVLLDLANEVDYAPSLMARLILERFLQEHEETPPSKSIINSMLRDPSQIPDGVLANQVYQCIVNDCCYGPLVDCIKHAIGHEHEVLLRDLLLEKNLSFLDEDQLRAKGYDKTPDFILQVPVAVEGHIIHWIESKASFGDECSHHAYLHDQFWSYWNRFGPGLVIYWYGFIQELDCNRERGILLKACFPTNIVTLCHSIA
notes: C15orf41); cDNA synthesized by IDT; source: Expi293, transiently transfected, in lysate and purified in complexes (anti-FLAG, Strep-Tactin); not shown: 3xFLAG, N-terminal, kept
[1]
  binding: binds
[2]
  binding: binds
